# Measured values published in PubChem BioAssay AID1347070 (National Center for Advancing Translational Sciences (NCATS), 2019).
# Screen size: about 94,000 compounds; about 20 (0.02%) were called active. This list was built around the results that the source calls inconclusive (neither active nor inactive); the mix of calls is not that of the screen. Calls follow the shape of the dose curve; as a rule, active = well fitted activation curve with a large enough effect; inconclusive = small, poorly fitted or top-dose-only effect; inactive = flat fitted curve, though single readings scatter. No potency is given beside an inconclusive call; the fits are too rough.
# Assay: qHTS of alpha-syn Inhibitors: NCGC Sytravon Library Screen; as to growth rescue (activation): 0% is about no effect
# Conditions: S. cerevisiae alpha-synuclein toxicity rescue, BacTiter-Glo growth, 24 h; growth rescue (activation): at 46.1 µM (top of the series)
# Procedure, shortened: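 Growth restoration measured by BacTiter-Glo luminescence after 24 hr at 30 deg C; alpha-synuclein yeast, raffinose-pregrown to mid-log, were added at OD600=0.02 in galactose medium onto pinned compounds.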
# Potency is read from the fitted curve at half-maximal effect; tags tell the direction and shape of the fitted curve.
SMILES,Potency,growth rescue (activation)
COc1ccc(C2c3[nH]c4ccc(OC)cc4c3CCN2C(=O)Nc2ccccc2)cc1 (stereo unspecified),"inconclusive [activator, single point]",
CCCCNc1nc2c(c(=O)n(Cc3ccc(Cl)c(Cl)c3)c(=O)n2C)n1C,"inconclusive [activator, partial curve]",
Cc1ccccc1NS(=O)(=O)c1ccc2[nH]c3c(c2c1)CCCCC3,"inconclusive [activator, single point]",
Cc1nc(-c2ccc(S(=O)(=O)N(Cc3ccccc3)C(C)C)cc2)co1,inactive,
Cc1cc(Cl)ccc1OCC(=O)N1CCC(c2nc3ccccc3o2)CC1,"inconclusive [activator, single point]",
CC(C)(C)OC(=O)N1CCC(c2c(C(=O)N3CCC(c4ccccc4)C3)cnn2-c2ccc(Cl)cc2)CC1 (stereo unspecified),"inconclusive [activator, single point]",
COc1ccc2c(Sc3ccc(Cl)cc3)c(C(=O)N3CCC(C)CC3)[nH]c2c1,"inconclusive [activator, single point]",
O=c1cc(CSc2ccc([N+](=O)[O-])cc2)nc2sccn12,,inconclusive: 63% [activator]
Cc1ccc(CN2CCCn3nc(C(=O)NCc4cc(C)ccc4C)cc3C2=O)cc1,"inconclusive [activator, single point]",
C=C(C)CNC(=O)c1ccc(OC2CCN(C(=O)COC)CC2)cc1,inactive,
Cc1ccc(S(=O)(=O)CCC(=O)Nc2ccc(Br)cc2C)cc1,inactive,
O=C(NC1CCCC1)C1CC(=O)N(c2ccc(F)cc2)C1 (stereo unspecified),inactive,
Cc1nnc(NC(=O)c2ccc(S(=O)(=O)N3CC(C)CC(C)C3)cc2)o1 (stereo unspecified),,inconclusive: 36.8% [activator]
CCOc1ccccc1NC(=O)CN1C(=O)CC(c2ccco2)Sc2ccccc21 (stereo unspecified),"inconclusive [activator, single point]",
COc1ccc(OC)c(S(=O)(=O)NCCc2sc(-c3ccc(C)cc3)nc2C)c1,"inconclusive [activator, single point]",
Cc1cc(S(=O)(=O)Nc2ccc(N3CCOCC3)cc2)ccc1Br,,inconclusive: 248% [activator]
CC(=O)NC(c1ccc(Cl)cc1Cl)c1ccc2cccnc2c1O (stereo unspecified),,inconclusive: 175% [activator]
Cc1cccc(N(CC(=O)Nc2ccc(Br)cc2)S(C)(=O)=O)c1C,"inconclusive [activator, single point]",
COc1cccc(/C=C/c2ccc3cccc(O)c3n2)c1OC,,inconclusive: 244% [activator]
CCc1cc(-c2onc(C)c2-c2cscn2)c(O)cc1OC,,inconclusive: 273% [activator]
Cc1ccc(-c2nc(CS(=O)(=O)CC(=O)NC(C)CCc3ccccc3)c(C)o2)cc1 (stereo unspecified),"inconclusive [activator, single point]",

SMILES,Potency,growth rescue (activation)
O=C(Nc1ccc(F)c(Cl)c1)c1cc(S(=O)(=O)NCc2ccc3c(c2)OCO3)ccc1F,"inconclusive [activator, single point]",
CCOc1cccc(-c2nc3ccccc3c(=O)o2)c1,inactive,
COc1ccc2c(c1)c1c(c(=O)n(-c3ccc(F)c(Cl)c3)c(=O)n1Cc1ccccc1F)n2C,"inconclusive [activator, single point]",
COc1cc2c(cc1OC)C(C)N(C(=O)c1cc3c(=O)oc4ccc(C)cc4c3s1)CC2 (stereo unspecified),,inconclusive: 150% [activator]
COc1ccc(-c2[nH]c(-c3ccc(C)cc3)nc2SCC(=O)NCC2CCCO2)cc1 (stereo unspecified),inactive,
Cc1ccc(Cn2c(C)c3cnn(CC(=O)N4CCN(c5cc(C)ccc5C)CC4)c(=O)c3c2C)cc1,"inconclusive [activator, single point]",
Cc1ccc(C(=O)CC2(O)C(=O)N(CCc3ccccc3)c3ccc(Br)cc32)cc1 (stereo unspecified),"inconclusive [activator, partial curve]",
CCc1ccc(Nc2nc(-c3cc4cccc(OC)c4oc3=O)c(CC)s2)cc1,"inconclusive [activator, single point]",
Cc1ccc2sc(N3CCN(C(=O)C4COc5ccccc5O4)CC3)nc2c1C (stereo unspecified),inactive,
CCc1ccc(NC(=O)CSC2=Nc3ccccc3C3=NC(CCC(=O)NCc4cccs4)C(=O)N23)cc1 (stereo unspecified),"inconclusive [activator, single point]",
Cc1c(C(=O)O)oc2c1-c1nn(Cc3ccccc3Cl)cc1CC2,"inconclusive [activator, partial curve, poor fit]",
N#Cc1ccc(NC(=O)C2Cc3ccccc3CN2S(=O)(=O)c2ccc(F)cc2)cc1 (stereo unspecified),"inconclusive [activator, single point]",
COc1ccc(OC)c(CC2C(=O)Nc3ccc(Br)cc32)c1 (stereo unspecified),"inconclusive [activator, single point]",
Cc1ccc(NC(=O)Cn2nc(N3CCN(c4ccccc4)CC3)ccc2=O)cc1F,"inconclusive [activator, single point]",
CCc1cccc(NC(=O)CN(C)S(=O)(=O)c2ccc3[nH]c4c(c3c2)CCCC4)c1,"inconclusive [activator, single point]",
O=C(CCOc1ccccc1)N(Cc1cccnc1)c1nc2c(F)cc(F)cc2s1,"inconclusive [activator, single point]",
COc1ccccc1-c1noc(-c2ccc(NC3CCCC3)c([N+](=O)[O-])c2)n1,inactive,
CCOc1ccc(CNC(=O)CS(=O)(=O)c2cccc3nsnc23)cc1,inactive,
CCN1CCOC(=O)C1CC(=O)Nc1ccc(Br)cc1 (stereo unspecified),inactive,
COc1cc(C)c(S(=O)(=O)N2CCCC2)cc1C(C)C,,inconclusive: 33.3% [activator]
Cc1ccc(-c2nc(C(=O)NCc3ccccc3Cl)c3n2CCCCC3)cc1,"inconclusive [activator, single point]",

SMILES,Potency,growth rescue (activation)
Cc1cc(Cl)ccc1OCC(=O)N1CCC(c2nc3ccccc3s2)CC1,"inconclusive [activator, single point]",
Cc1cc(C)c(C#N)c(SCC(O)COc2ccc(Br)cc2)n1 (stereo unspecified),,inconclusive: 56.2% [activator]
COc1ccc(OC)c(C(=O)CC2(O)C(=O)N(Cc3ccccc3C)c3ccccc32)c1 (stereo unspecified),,inconclusive: 86.7% [activator]
Cc1ccc(-n2ncc3c(NCCCN4CCOCC4)ncnc32)cc1C,inactive,
Cc1ccc(S(=O)(=O)Nc2ccc(O)c3ncccc23)cc1,,inconclusive: 64.2% [activator]
COc1ccc(OCC(=O)NC(=S)NNC(=O)COc2ccc(Br)cc2Cl)cc1,,inconclusive: 53.2% [activator]
CCn1c(=O)cc(OCC(=O)N2CCN(c3ccc(C)cc3)C(C)C2)c2ccccc21 (stereo unspecified),inactive,
O=C(Cn1ncc2c1-c1ccccc1OC2)N1CCN(c2ccccc2)CC1,"inconclusive [activator, single point]",
Cc1cccc(NC(=O)CN2C(=O)C(c3ccccc3)=NC23CCC(C)CC3)c1 (stereo unspecified),"inconclusive [activator, single point]",
Nc1nc2c(s1)CCc1c-2cnn1-c1ccccc1,,inconclusive: 54.7% [activator]
COc1ccc(C(=O)CC(=O)C(=O)NCCc2cccc(C)c2)cc1,,inconclusive: 33% [activator]
Oc1ccccc1-c1nc2cnccn2c1Nc1ccc(Cl)cc1,,inconclusive: -38.9% [activator]
COc1ccc(-c2ccc(NS(=O)(=O)c3cc(C)c(C)cc3C)cc2)nn1,,inconclusive: -69.1% [activator]
CCc1ccc2occ(CC(=O)Nc3ccc(OC)c(Cl)c3)c2c1,"inconclusive [activator, single point]",
O=C(CSc1nc2c([nH]c3ccccc32)c(=O)n1-c1ccccc1F)Nc1cccc(C(F)(F)F)c1,inactive,
Cc1ccccc1Nc1nc(N)c(C(=O)c2ccccc2Cl)s1,"inconclusive [activator, single point]",
O=C(NCCCN1CCN(c2cccc(Cl)c2)CC1)c1ccc2nc(Cc3ccccc3)oc2c1,inactive,
COc1ccccc1NC(=O)CSc1ccc(-c2ccccn2)nn1,"inconclusive [activator, single point]",
CCOc1ccc(CN2C(=O)C(=O)c3cccc(C)c32)cc1OC,"inconclusive [activator, partial curve]",
